Out of some 370,000 compounds screened, about 150 (0.041%) were called active. Inconclusive means that the source gave no clear call. Such entries were picked first, then a sample of the others. The call rests on the fitted dose curve; in most records, active means well fitted inhibition curve with a large enough effect; inconclusive means small, poorly fitted or top-dose-only effect; inactive means flat fitted curve, though single readings scatter. Potencies of inconclusive entries are left out as doubtful fits.
biological target: Beta-lactamase (Escherichia coli (strain K12)) (UniProt P00811); experiment: qHTS Inhibitors of AmpC Beta-Lactamase (assay with detergent); conditions: AmpC hydrolysis of nitrocefin, absorbance 480 nm, 0.01% Triton; activity change, negative = inhibition: at 114 µM (top of the series); further: nearly all actives have a fitted effect of over 25% in size;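 on activity change, negative = inhibition: 0% = no-compound wells and -100% = no-enzyme wells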
In short: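 AmpC (5.3 nM in the dispensed reagent) in 20 mM phosphate pH 7.0 with 0.01% (detergent screen) or 0.0001% Triton X-100 was preincubated with compounds for 15 min at room temperature. Nitrocefin was then added from an 800 uM solution, and hydrolysis was followed at 480 nm.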
Potency means the concentration at half of the fitted maximal effect; tags describe the fitted curve by direction and shape.

UniProt P00811, sequence (P00811 whole entry, looked up): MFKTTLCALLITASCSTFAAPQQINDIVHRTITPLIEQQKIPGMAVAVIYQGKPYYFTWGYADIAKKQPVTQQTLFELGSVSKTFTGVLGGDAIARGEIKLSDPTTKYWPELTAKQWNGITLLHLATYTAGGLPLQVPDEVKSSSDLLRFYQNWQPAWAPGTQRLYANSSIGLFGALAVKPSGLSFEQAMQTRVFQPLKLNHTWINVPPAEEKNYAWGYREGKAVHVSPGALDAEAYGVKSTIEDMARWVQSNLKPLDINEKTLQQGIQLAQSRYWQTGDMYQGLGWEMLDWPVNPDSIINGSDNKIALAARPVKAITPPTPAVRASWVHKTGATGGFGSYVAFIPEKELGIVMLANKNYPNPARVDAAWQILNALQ

SMILES | Potency | activity change, negative = inhibition
CCOC(=O)CCCn1c(C)nc(=O)c(-c2ccccc2)c1C | inconclusive [inhibitor, full curve, poor fit] | 
O=C(Nn1c(Cc2cccs2)nc2ccccc2c1=O)c1cccs1 | inconclusive [inhibitor, full curve, poor fit] | 
O=C(Cc1cccs1)NCCSc1c(-c2ccc(Cl)cc2)[nH]c2ccccc12 | inconclusive [inhibitor, full curve, poor fit] | 
COc1ccc(NC(=O)CSc2nnc(-c3ccncc3)n2C)cc1 | inconclusive [inhibitor, single point] | 
OC(COc1ccc(Br)cc1)CN1CCOCC1 (stereo not given) | inconclusive [inhibitor, full curve] | 
COc1ccc(-c2nc(CSCC(=O)NCCc3ccc(C)cc3)c(C)o2)cc1OC | inconclusive [inhibitor, partial curve] | 
Cc1onc(-c2ccccc2)c1CNC(=O)Nc1ccc(F)cc1F | inconclusive [inhibitor, single point] | 
Cc1cccc(NC(=S)N(C)Cc2cn(C)c3ccccc23)c1 | inconclusive [inhibitor, partial curve, poor fit] | 
CCOC(=O)CSc1nc2sc(C(=O)O)c(C)c2c(=O)[nH]1 | inconclusive [inhibitor, full curve, poor fit] | 
Cc1ccc(-n2nc3c(c2NC(=O)/C=C\c2ccc4c(c2)OCO4)CSC3)c(C)c1 |  | inactive: -15.4%
Cc1nn(-c2ccccc2)c(C)c1NC(=O)COC(=O)c1ccc(Cl)c(N)c1 | inconclusive [inhibitor, full curve, poor fit] | 
CNc1ccccc1-c1nc2ccccc2n(C)c1=O |  | inactive: -6.98%
O=C(CSc1nnc(Cc2ccccc2)o1)NC1CC2CCC1C2 (stereo not given) | inconclusive [inhibitor, partial curve] | 
Clc1ccc(Cn2nnc(-c3ccccc3)n2)cc1 |  | inactive: -3.83%
COc1ccc(OC)c(S(=O)(=O)N2CCC(C(=O)NC3CCCC3)CC2)c1 | inconclusive [inhibitor, full curve, poor fit] | 
CC(C)(C)Cc1nc(-c2ccccn2)no1 | inconclusive [inhibitor, single point] | 
COc1cccc(C2/C(=C(\O)c3ccc(OC)c(OC)c3)C(=O)C(=O)N2c2cc(C)on2)c1 (stereo not given) | inconclusive [inhibitor, full curve, poor fit] | 
O=C(COC(=O)C1CCN(S(=O)(=O)c2cccs2)CC1)Nc1ccc(F)c(F)c1F | inconclusive [inhibitor, full curve, poor fit] | 
CC(=O)Nc1ccc(NC(=S)NC(=O)/C=C/c2ccco2)cc1 |  | inactive: -20.7%
CN(C)C(=O)CN1C(=O)c2cccc3cccc1c23 |  | inactive: 3.35%
O=[N+]([O-])c1cccc(-c2ccc(/C=N/NC(=S)Nc3cccc(F)c3)o2)c1 |  | inactive: 7.43%
CCC(CC)C(=O)Nc1cc(C(=O)OC)cc(C(=O)OC)c1 | inconclusive [inhibitor, full curve, poor fit] | 
Cc1cc2c(cc1C)C(c1ccccc1F)CC(=O)N2 (stereo not given) | inconclusive [inhibitor, full curve, poor fit] | 
O=C(N/N=C/c1cccnc1)c1cccc(F)c1 | inconclusive [inhibitor, full curve, poor fit] | 

SMILES | Potency | activity change, negative = inhibition
CC(Sc1nncn1C)C(=O)Nc1ccc(Cl)cn1 (stereo not given) | inconclusive [inhibitor, partial curve] | 
Nc1nc(NCc2ccco2)nn1-c1ccccc1 | inconclusive [inhibitor, partial curve, poor fit] | 
O=C(O)C12CC3CC(C1)CC(n1ncc(NCc4ccco4)c(Cl)c1=O)(C3)C2 |  | inactive: 5.75%
O=C(c1cccs1)c1coc2ccc(O)c(CN(CCO)CCO)c12 |  | inactive: -19.6%
Cc1ccc(NS(=O)(=O)c2ccc(CCC(=O)NCCCOC(C)C)cc2)cc1 | inconclusive [inhibitor, partial curve] | 
CCCOc1cccc(C(=O)NCCCNC(=O)c2ccccn2)c1 |  | inactive: 1.12%
Cc1cccc(-c2nnc(SCC(=O)N3CCOCC3)o2)c1 | inconclusive [inhibitor, full curve, poor fit] | 
CCCCNC(=S)NC(=O)c1ccccc1Br |  | inactive: -5.34%
COc1cc(C(=O)N2CCC(n3cnc4cc(F)ccc43)CC2)cc(OC)c1OC | inconclusive [inhibitor, full curve, poor fit] | 
Cc1nn(-c2ccccc2)c(N2CCCC2)c1/C=N/NC(=O)c1ccccc1O |  | inactive: -7%
CCn1c(C)cc(C)c(C#N)c1=O |  | inactive: 2.32%
CCNC(=O)CN(c1ccc(CC)cc1)S(C)(=O)=O | inconclusive [inhibitor, full curve, poor fit] | 
COc1ccc(S(=O)(=O)NCCOc2cccc3cccnc23)cc1OC | inconclusive [inhibitor, single point] | 
CCOc1ccc2nc(NC(=O)CN3C(=O)C4CCCCC4C3=O)sc2c1 (stereo not given) | inconclusive [inhibitor, partial curve, poor fit] | 
Cn1cccc1C(=O)NC(=O)COC(=O)c1ccccc1O |  | inactive: 15.7%
COc1ccc(OC)c(NC(=O)CCc2nnc3ccc(N4CCC(C)CC4)nn23)c1 |  | inactive: 4.08%
Cc1cc(NC(=O)CCC(=O)N(c2ccc(C)c(F)c2)C(C(=O)NC2CCCC2)c2ccco2)no1 (stereo not given) | inconclusive [inhibitor, full curve, poor fit] | 
Cc1ccc(N2CC(c3nnc(NC(=O)c4ccco4)s3)CC2=O)cc1Cl (stereo not given) |  | inactive: 24.2%
CCOC(=O)c1c(-c2ccsc2)csc1N |  | inactive: -8.51%
CCOc1ccc2nc(NC(=O)CSc3cn[nH]n3)sc2c1 | inconclusive [inhibitor, full curve, poor fit] | 
O=C(NCC1CCCO1)c1ccc(CNS(=O)(=O)c2ccc(F)c(Cl)c2)cc1 (stereo not given) | inconclusive [inhibitor, single point] | 
Cc1ccc(C)c2sc(NC(=O)c3ccc(N4CCCCC4)c([N+](=O)[O-])c3)nc12 |  | inactive: -0.19%
Cc1cc(C)c2c(=O)n(-c3ccccc3)[nH]c2n1 |  | inactive: -5.84%
CCCN(CC(=O)Nc1ccccc1OC)C(=O)CCNC(=O)c1ccccc1OC | inconclusive [inhibitor, partial curve] | 

SMILES | Potency | activity change, negative = inhibition
C=CCOc1ccc2ccccc2c1/C=N/O | inconclusive [inhibitor, partial curve] | 
C=C[C@H]1CN2CC[C@H]1C[C@H]2[C@H](O)c1ccnc2ccc(OC)cc12 | inconclusive [inhibitor, full curve, poor fit] | 
Cc1ccccc1OCCC(=O)OCC(=O)NC1CCCC1 | inconclusive [inhibitor, full curve, poor fit] | 
CCOc1ccc(CNC(=O)CCC(=O)N2CC3CCCN3c3ccccc32)cc1 (stereo not given) | inconclusive [inhibitor, full curve] | 
Brc1cccc(-c2nnc3sc(CN4CCC5(CC4)OCCO5)cn23)c1 | inconclusive [inhibitor, partial curve] | 
CC1CCCN(CCCOc2ccccc2-c2ccccc2)C1 (stereo not given) | inconclusive [inhibitor, full curve, poor fit] | 
CCc1nc2cccnc2n1-c1ccc(CC(=O)Nc2ccccc2Cl)cc1 |  | inactive: 0.901%
C[N+]1(C)C2CC(OC(=O)C(CO)c3ccccc3)CC1C1OC12 (stereo not given) | inconclusive [inhibitor, full curve, poor fit] | 
CCOc1ccccc1NC(=O)CN(c1cc(C)cc(C)c1)S(=O)(=O)c1c(C)noc1C | inconclusive [inhibitor, full curve, poor fit] | 
Cc1ccc2cc(CCNC(=O)C(=O)c3c(C)[nH]c4ccccc34)c(=O)[nH]c2c1 |  | inactive: 1.06%
COc1ccc(OC)c(S(=O)(=O)Nc2cc3c(cc2N2CCCC2)n(C)c(=O)c(=O)n3C)c1 | inconclusive [inhibitor, full curve] | 
COc1cc(C(=O)NCCOc2cccc(C)c2)c(Br)c(OC)c1OC | inconclusive [inhibitor, full curve] | 
Cn1c(C(=O)O)c(CC(=O)N2CCN(Cc3ccccc3)CC2)c2ccccc21 | inconclusive [inhibitor, partial curve, poor fit] | 
COc1ccc(N(CC(=O)N2CCc3ccccc3C2)S(=O)(=O)c2c(C)nn(C)c2C)cc1 | inconclusive [inhibitor, full curve, poor fit] | 
COc1ccc(NC(=O)N2CCCC(CCC(=O)N(C)CCc3ccccn3)C2)cc1 (stereo not given) |  | inactive: -5.46%
COc1ccc(-c2cn3cccnc3n2)cc1NC(=O)c1c(F)cccc1F |  | inactive: 0.567%
COc1ccc(NC(=O)CSCC(=O)N2CCN(c3cccc(C(F)(F)F)c3)CC2)cc1 | inconclusive [inhibitor, full curve, poor fit] | 
CCc1ccc2c(c1)cc(CN(C(=S)Nc1ccc(Cl)cc1)C1CC1)c1nnnn12 |  | inactive: 3.81%
O=C1Nc2ccccc2C12Nc1ccccc1-c1nc3ccccc3n12 (stereo not given) | inconclusive [inhibitor, full curve, poor fit] | 
Cc1ccccc1C(=O)NC(=S)Nc1ccccc1C(=O)O |  | inactive: -1.9%
CCCOc1ccccc1C1NC(=O)NC(C)=C1C(=O)OCc1ccccc1 (stereo not given) |  | inactive: -9.68%
O=C(/C=C/c1cccc([N+](=O)[O-])c1)N1CCN(C(=O)c2ccco2)CC1 | inconclusive [inhibitor, full curve] | 

Reference: PubChem BioAssay AID485294 (National Center for Advancing Translational Sciences (NCATS), 2010)
